According to patent publication US20020128438A1, “DNA cassette for the production of secretable recombinant trimeric TRAIL proteins, tetracycline/ doxycycline-inducible adeno-associated virus vector, their combination and use in gene therapy” (priority 2000, published 2002):

System: various cancer cell lines
Conditions: TRAIL protein 100 ng/ml plus ActD 100 ng/ml, 12 hours

For “recombinant human TRAIL(114-281) protein: recombinant human TRAIL amino acid 114-281 protein”, which “apoptotic activity of TRAIL protein in the presence of ActD” value is on record?
The value was “significantly enhanced”.

What about the “killing of target cells with the aid of ActD, regardless of intrinsic resistance to TRAIL alone” value of the same substance?
Its value is “killed most target cells tested”.
